Consider 20 molecules from PMC9911399, “Two distinct binding modes provide the RNA-binding protein RbFox with extraordinary sequence specificity”.

Residue numbers refer to the chain shown, from its start. The list shows a part of the results.

The chains are these.
T1: RBFOX1 RRM RbFoxmut (Fox-RRM*) (Homo sapiens, UniProt Q9NWB1 109-208, R118D;E147R;N151S;E152T)
T1 sequence: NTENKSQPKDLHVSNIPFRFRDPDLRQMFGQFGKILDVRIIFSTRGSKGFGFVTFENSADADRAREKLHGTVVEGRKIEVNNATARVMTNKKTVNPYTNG

B1: AACUCCA (DNA:RNA)
RNA: GGGAGACCGGAAUUCAGAUUGUCCAACUCCAUUAAAUCCCGUCGUAGCCACCA
DNA 1: CAATCTGAATTCCGGTCTCCC
DNA 2: TGGTGGCTACGACGGGATT
B2: GCGCAGU (DNA:RNA)
RNA: GGGAGACCGGAAUUCAGAUUGUCCGCGCAGUUUAAAUCCCGUCGUAGCCACCA
DNA 1: CAATCTGAATTCCGGTCTCCC
DNA 2: TGGTGGCTACGACGGGATT
B3: CCCCUCC (DNA:RNA)
RNA: B1 RNA with A25C, A26C, U28C, C29U, A31C
DNA 1: CAATCTGAATTCCGGTCTCCC
DNA 2: TGGTGGCTACGACGGGATT
B4: GGGUUGU (DNA:RNA)
RNA: B2 RNA with C26G, C28U, A29U
DNA 1: CAATCTGAATTCCGGTCTCCC
DNA 2: TGGTGGCTACGACGGGATT
B5: ACUAUCC (DNA:RNA)
RNA: B1 RNA with A26C, C27U, U28A, C29U, A31C
DNA 1: CAATCTGAATTCCGGTCTCCC
DNA 2: TGGTGGCTACGACGGGATT
B6: GAAUGAA (DNA:RNA)
RNA: B1 RNA with A25G, C27A, C29G, C30A
DNA 1: CAATCTGAATTCCGGTCTCCC
DNA 2: TGGTGGCTACGACGGGATT
B7: CCAAGCC (DNA:RNA)
RNA: B1 RNA with A25C, A26C, C27A, U28A, C29G, A31C
DNA 1: CAATCTGAATTCCGGTCTCCC
DNA 2: TGGTGGCTACGACGGGATT
B8: UAAGGAU (DNA:RNA)
RNA: B1 RNA with A25U, C27A, U28G, C29G, C30A, A31U
DNA 1: CAATCTGAATTCCGGTCTCCC
DNA 2: TGGTGGCTACGACGGGATT
B9: AAUUAAC (DNA:RNA)
RNA: B1 RNA with C27U, C29A, C30A, A31C
DNA 1: CAATCTGAATTCCGGTCTCCC
DNA 2: TGGTGGCTACGACGGGATT
B10: GGCUAAA (DNA:RNA)
RNA: B1 RNA with A25G, A26G, C29A, C30A
DNA 1: CAATCTGAATTCCGGTCTCCC
DNA 2: TGGTGGCTACGACGGGATT
B11: AUUUAUC (DNA:RNA)
RNA: B1 RNA with A26U, C27U, C29A, C30U, A31C
DNA 1: CAATCTGAATTCCGGTCTCCC
DNA 2: TGGTGGCTACGACGGGATT
B12: CGGUGUU (DNA:RNA)
RNA: B2 RNA with G25C, C26G, C28U, A29G, G30U
DNA 1: CAATCTGAATTCCGGTCTCCC
DNA 2: TGGTGGCTACGACGGGATT
B13: UGUUCAG (DNA:RNA)
RNA: B1 RNA with A25U, A26G, C27U, C30A, A31G
DNA 1: CAATCTGAATTCCGGTCTCCC
DNA 2: TGGTGGCTACGACGGGATT
B14: CGCAGCC (DNA:RNA)
RNA: B1 RNA with A25C, A26G, U28A, C29G, A31C
DNA 1: CAATCTGAATTCCGGTCTCCC
DNA 2: TGGTGGCTACGACGGGATT
B15: CAGGGCG (DNA:RNA)
RNA: B1 RNA with A25C, C27G, U28G, C29G, A31G
DNA 1: CAATCTGAATTCCGGTCTCCC
DNA 2: TGGTGGCTACGACGGGATT
B16: GACCGAC (DNA:RNA)
RNA: B1 RNA with A25G, U28C, C29G, C30A, A31C
DNA 1: CAATCTGAATTCCGGTCTCCC
DNA 2: TGGTGGCTACGACGGGATT
B17: GCCUUAC (DNA:RNA)
RNA: B1 RNA with A25G, A26C, C29U, C30A, A31C
DNA 1: CAATCTGAATTCCGGTCTCCC
DNA 2: TGGTGGCTACGACGGGATT
B18: CUCCUGA (DNA:RNA)
RNA: B1 RNA with A25C, A26U, U28C, C29U, C30G
DNA 1: CAATCTGAATTCCGGTCTCCC
DNA 2: TGGTGGCTACGACGGGATT
B19: UCAGAAU (DNA:RNA)
RNA: B2 RNA with G25U, G27A, C28G, G30A
DNA 1: CAATCTGAATTCCGGTCTCCC
DNA 2: TGGTGGCTACGACGGGATT
B20: GUGCCGG (DNA:RNA)
RNA: B2 RNA with C26U, A29C, U31G
DNA 1: CAATCTGAATTCCGGTCTCCC
DNA 2: TGGTGGCTACGACGGGATT

For the assay, the target named is T1, RBFOX1 RRM RbFoxmut (Fox-RRM*). The assay can be described thus: EMSA; HiTS-Eq, 1 nM pool, 10 min; buffer printed only for the single-RNA assays: 10 mM Tris pH 7.5, 150 mM NaCl, 3.4 mM EDTA, 0.001% NP-40, 30 C. Particulars: tags: His6 N-terminal (pET28a); label: 5' 32P. In a few lines: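 These values rest on relative association constants, computed from read-count changes of each RNA species versus the control reaction and normalised to the cognate motif. Reads came from free RNA recovered by 8% native PAGE after purified RbFox RRM (wild type or mutant) at increasing concentrations was equilibrated for 10 min in 50 µL with 1 nM of a 5′-radiolabelled pool with 7 randomized nucleotides and DNA-annealed flanks.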
(A gel shift assay detects complexes by their altered migration in electrophoresis.)
For the molecule B1, the binding signal was 0.11 KA relative to UGCAUGU. The value for B2 was 0.0815 KA relative to UGCAUGU; that for B3 was 0.0654 KA relative to UGCAUGU.

Take B4: the binding signal was 0.448 KA relative to UGCAUGU. The value for B5 was 0.0886 KA relative to UGCAUGU.

Regarding B6, the binding signal was 0.873 KA relative to UGCAUGU. To B7 belongs 0.109 KA relative to UGCAUGU; to B8, 0.0822 KA relative to UGCAUGU. In the case of B9, the binding signal is 0.103 KA relative to UGCAUGU. To B10 belongs 0.0819 KA relative to UGCAUGU; to B11, 0.111 KA relative to UGCAUGU; to B12, 0.11 KA relative to UGCAUGU. To B13 belongs 0.0989 KA relative to UGCAUGU; to B14, 0.106 KA relative to UGCAUGU. To B15 belongs 0.123 KA relative to UGCAUGU; to B16, 0.113 KA relative to UGCAUGU; to B17, 0.0971 KA relative to UGCAUGU. With B18, the binding signal was 0.0832 KA relative to UGCAUGU. The value for B19 was 0.104 KA relative to UGCAUGU. The value for B20 was 0.0871 KA relative to UGCAUGU.
